# Assay results from the supplement of paper PMC8728848.
# The other results are listed elsewhere or left out.
# B1: F17aG (Escherichia coli), Q99003 (protein)
# chain: MTNFYKVFLAVFILVCCNISQAAVSFIGSTENDVGPSLGSYSRTHAMDNLPFVYDTRNKIGYQNANVWHISKGFCVGLDGKVDLPVVGSLDGQSIYGLTEEVGLLIWMGDTKYSRGTAMSGNSWENVFSGWCVGANTASTQGLSVRVTPVILKRNSSARYSVQKTSIGSIRMRPYNGSSAGSVQTTVNFSLNPFTLNDTVTSCRLLTPSAVNVSLAAISAGQLPSSGDEVVAGTTSLKLQCDAGVTVWATLTDATTPSNRSDILTLTGASTATGVGLRIYKNTDSTPLKFGPDSPVKGNENQWQLSTGTETSPSVRLYVKYVNTGEGINPGTVNGISTFTFSYQ
# Tests used:
# Test in all cases: glycan array binding signal (z-score within array); higher = stronger binding
# Settings in all cases: glycan notation: IUPAC condensed, linker removed
# Fuc(a1-2)Gal = biological target: Fuc(a1-2)Gal
# In short: (§1)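 Arrays were curated from the Consortium for Functional Glycomics database, 3228 in total, and kept only where the protein sequence was available. Binding is expressed as a within-array Z-score. This score was averaged across arrays of the same protein sequence at different concentrations or buffers and across linkers, and negative values can be read as non-binding.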
# Fuc(a1-2)Gal(b1-3)GalNAc = biological target: Fuc(a1-2)Gal(b1-3)GalNAc
# In short: as §1
# [1] = biological target: Fuc(a1-2)Gal(b1-3)GalNAc(a1-3)[Fuc(a1-2)]Gal(b1-4)Glc
# In short: as §1
# [2] = biological target: Fuc(a1-2)Gal(b1-3)GalNAc(a1-3)[Fuc(a1-2)]Gal(b1-4)GlcNAc
# In short: as §1
# [3] = biological target: Fuc(a1-2)Gal(b1-3)GalNAc(b1-3)Gal
# In short: as §1
# [4] = biological target: Fuc(a1-2)Gal(b1-3)GalNAc(b1-3)Gal(a1-4)Gal(b1-4)Glc
# In short: as §1
# [5] = biological target: Fuc(a1-2)Gal(b1-3)GalNAc(b1-4)[Neu5Ac(a2-3)]Gal(b1-4)Glc
# In short: as §1
# Fuc(a1-2)Gal(b1-3)GlcNAc = biological target: Fuc(a1-2)Gal(b1-3)GlcNAc
# In short: as §1
# [6] = biological target: Fuc(a1-2)Gal(b1-3)GlcNAc(b1-2)Man(a1-3)[Fuc(a1-2)Gal(b1-3)GlcNAc(b1-2)Man(a1-6)]Man(b1-4)GlcNAc(b1-4)GlcNAc
# In short: as §1
# [7] = biological target: Fuc(a1-2)Gal(b1-3)GlcNAc(b1-2)Man(a1-3)[Fuc(a1-2)Gal(b1-3)GlcNAc(b1-2)Man(a1-6)]Man(b1-4)GlcNAc(b1-4)[Fuc(a1-6)]GlcNAc
# In short: as §1
# [8] = biological target: Fuc(a1-2)Gal(b1-3)GlcNAc(b1-3)Gal(b1-4)Glc
# In short: as §1
# [9] = biological target: Fuc(a1-2)Gal(b1-3)GlcNAc(b1-3)GalNAc
# In short: as §1
# [10] = biological target: Fuc(a1-2)Gal(b1-3)GlcNAc(b1-3)[Fuc(a1-3)[Gal(b1-4)]GlcNAc(b1-6)]Gal(b1-4)Glc
# In short: as §1
# [11] = biological target: Fuc(a1-2)Gal(b1-3)GlcNAc(b1-3)[Gal(b1-4)GlcNAc(b1-6)]Gal(b1-4)Glc
# In short: as §1
# [12] = biological target: Fuc(a1-2)Gal(b1-3)GlcNAc(b1-3)[Neu5Ac(a2-6)Gal(b1-4)GlcNAc(b1-6)]Gal(b1-4)Glc
# In short: as §1
# [13] = biological target: Fuc(a1-2)Gal(b1-3)[Fuc(a1-4)]GlcNAc
# In short: as §1
# [14] = biological target: Fuc(a1-2)Gal(b1-3)[Fuc(a1-4)]GlcNAc(b1-2)Man(a1-3)[Fuc(a1-2)Gal(b1-3)[Fuc(a1-4)]GlcNAc(b1-2)Man(a1-6)]Man(b1-4)GlcNAc(b1-4)GlcNAc
# In short: as §1
# [15] = biological target: Fuc(a1-2)Gal(b1-3)[Fuc(a1-4)]GlcNAc(b1-3)[Fuc(a1-3)[Gal(b1-4)]GlcNAc(b1-6)]Gal(b1-4)Glc
# In short: as §1
# [16] = biological target: Fuc(a1-2)Gal(b1-3)[Fuc(a1-4)]GlcNAc(b1-3)[Gal(b1-4)GlcNAc(b1-6)]Gal(b1-4)Glc
# In short: as §1
# Fuc(a1-2)Gal(b1-4)Glc = biological target: Fuc(a1-2)Gal(b1-4)Glc
# In short: as §1
# Fuc(a1-2)Gal(b1-4)Glc6S = biological target: Fuc(a1-2)Gal(b1-4)Glc6S
# In short: as §1
# Fuc(a1-2)Gal(b1-4)GlcNAc = biological target: Fuc(a1-2)Gal(b1-4)GlcNAc
# In short: as §1
# [17] = biological target: Fuc(a1-2)Gal(b1-4)GlcNAc(b1-2)Man(a1-3)[Fuc(a1-2)Gal(b1-4)GlcNAc(b1-2)Man(a1-6)]Man(b1-4)GlcNAc(b1-4)GlcNAc
# In short: as §1
# [18] = biological target: Fuc(a1-2)Gal(b1-4)GlcNAc(b1-2)Man(a1-3)[Fuc(a1-2)Gal(b1-4)GlcNAc(b1-2)Man(a1-6)]Man(b1-4)GlcNAc(b1-4)[Fuc(a1-6)]GlcNAc
# In short: as §1
# [19] = biological target: Fuc(a1-2)Gal(b1-4)GlcNAc(b1-2)[Fuc(a1-2)Gal(b1-4)GlcNAc(b1-4)]Man(a1-3)[Fuc(a1-2)Gal(b1-4)GlcNAc(b1-2)Man(a1-6)]Man(b1-4)GlcNAc(b1-4)GlcNAc
# In short: as §1
# [20] = biological target: Fuc(a1-2)Gal(b1-4)GlcNAc(b1-3)Gal(b1-4)GlcNAc
# In short: as §1
# [21] = biological target: Fuc(a1-2)Gal(b1-4)GlcNAc(b1-3)Gal(b1-4)GlcNAc(b1-3)Gal(b1-4)GlcNAc
# In short: as §1
# [22] = biological target: Fuc(a1-2)Gal(b1-4)GlcNAc(b1-3)GalNAc
# In short: as §1
# [23] = biological target: Fuc(a1-2)Gal(b1-4)GlcNAc(b1-3)[Fuc(a1-2)Gal(b1-4)GlcNAc(b1-6)]GalNAc
# In short: as §1
# [24] = biological target: Fuc(a1-2)Gal(b1-4)GlcNAc6S
# In short: as §1
# [25] = biological target: Fuc(a1-2)Gal(b1-4)[Fuc(a1-3)]GlcNAc
# In short: as §1
# [26] = biological target: Fuc(a1-2)Gal(b1-4)[Fuc(a1-3)]GlcNAc(b1-2)Man(a1-3)[Fuc(a1-2)Gal(b1-4)[Fuc(a1-3)]GlcNAc(b1-2)Man(a1-6)]Man(b1-4)GlcNAc(b1-4)GlcNAc
# In short: as §1
# [27] = biological target: Fuc(a1-2)Gal(b1-4)[Fuc(a1-3)]GlcNAc(b1-2)[Fuc(a1-2)Gal(b1-4)[Fuc(a1-3)]GlcNAc(b1-4)]Man(a1-3)[Fuc(a1-2)Gal(b1-4)[Fuc(a1-3)]GlcNAc(b1-2)Man(a1-6)]Man(b1-4)GlcNAc(b1-4)GlcNAc
# In short: as §1
# [28] = biological target: Fuc(a1-2)Gal(b1-4)[Fuc(a1-3)]GlcNAc(b1-3)Gal(b1-4)[Fuc(a1-3)]GlcNAc
# In short: as §1
# [29] = biological target: Fuc(a1-2)Gal(b1-4)[Fuc(a1-3)]GlcNAc(b1-3)Gal(b1-4)[Fuc(a1-3)]GlcNAc(b1-3)Gal(b1-4)[Fuc(a1-3)]GlcNAc
# In short: as §1
# [30] = biological target: Fuc(a1-2)Gal(b1-4)[Fuc(a1-3)]GlcNAc(b1-3)GalNAc
# In short: as §1
# Fuc(a1-2)Gal6S(b1-4)Glc = biological target: Fuc(a1-2)Gal6S(b1-4)Glc
# In short: as §1
binder,measurement,setting,value
B1,glycan array binding signal (z-score),Fuc(a1-2)Gal,-0.247
same,glycan array binding signal (z-score),Fuc(a1-2)Gal(b1-3)GalNAc,-0.212
same,glycan array binding signal (z-score),[1],-0.158
same,glycan array binding signal (z-score),[2],-0.133
same,glycan array binding signal (z-score),[3],0.952
same,glycan array binding signal (z-score),[4],-0.23
same,glycan array binding signal (z-score),[5],-0.252
same,glycan array binding signal (z-score),Fuc(a1-2)Gal(b1-3)GlcNAc,-0.245
same,glycan array binding signal (z-score),[6],-0.15
same,glycan array binding signal (z-score),[7],-0.125
same,glycan array binding signal (z-score),[8],-0.243
same,glycan array binding signal (z-score),[9],-0.129
same,glycan array binding signal (z-score),[10],-0.148
same,glycan array binding signal (z-score),[11],-0.174
same,glycan array binding signal (z-score),[12],-0.153
same,glycan array binding signal (z-score),[13],-0.226
same,glycan array binding signal (z-score),[14],-0.169
same,glycan array binding signal (z-score),[15],-0.139
same,glycan array binding signal (z-score),[16],-0.151
same,glycan array binding signal (z-score),Fuc(a1-2)Gal(b1-4)Glc,-0.228
same,glycan array binding signal (z-score),Fuc(a1-2)Gal(b1-4)Glc6S,-0.123
same,glycan array binding signal (z-score),Fuc(a1-2)Gal(b1-4)GlcNAc,-0.212
same,glycan array binding signal (z-score),[17],-0.166
same,glycan array binding signal (z-score),[18],-0.177
same,glycan array binding signal (z-score),[19],-0.163
same,glycan array binding signal (z-score),[20],-0.259
same,glycan array binding signal (z-score),[21],-0.258
same,glycan array binding signal (z-score),[22],-0.165
same,glycan array binding signal (z-score),[23],0.305
same,glycan array binding signal (z-score),[24],-0.172
same,glycan array binding signal (z-score),[25],0.046
same,glycan array binding signal (z-score),[26],-0.15
same,glycan array binding signal (z-score),[27],-0.163
same,glycan array binding signal (z-score),[28],-0.24
same,glycan array binding signal (z-score),[29],-0.238
same,glycan array binding signal (z-score),[30],-0.118
same,glycan array binding signal (z-score),Fuc(a1-2)Gal6S(b1-4)Glc,-0.156
